Test results from PMC11014987.
Where a chain is given by its changes, count along the chain named. Results are given in words; binding and its absence hold for the method and conditions named. Some binding calls cover weakened binding; strength is not graded here. Where a sequence is shown, tags or fusion partners need not be part of it.

T1: SdhB1 (sll1625), iron-sulfur cluster binding subunit of the succinate dehydrogenase complex (yeast two-hybrid fusion) (Synechocystis sp. PCC 6803) (UniProt P73723)
T1 sequence: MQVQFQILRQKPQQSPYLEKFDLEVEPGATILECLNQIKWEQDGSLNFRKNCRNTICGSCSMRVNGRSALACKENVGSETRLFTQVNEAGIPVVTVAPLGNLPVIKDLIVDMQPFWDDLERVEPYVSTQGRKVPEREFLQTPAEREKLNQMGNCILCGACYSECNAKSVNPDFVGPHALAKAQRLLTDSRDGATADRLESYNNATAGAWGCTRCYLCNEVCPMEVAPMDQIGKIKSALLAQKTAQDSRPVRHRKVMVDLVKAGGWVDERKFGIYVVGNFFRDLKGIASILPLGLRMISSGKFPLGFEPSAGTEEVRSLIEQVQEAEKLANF

T2: slr0665, an aconitate hydratase (yeast two-hybrid fusion) (Synechocystis sp. PCC 6803) (UniProt P74582)
T2 sequence: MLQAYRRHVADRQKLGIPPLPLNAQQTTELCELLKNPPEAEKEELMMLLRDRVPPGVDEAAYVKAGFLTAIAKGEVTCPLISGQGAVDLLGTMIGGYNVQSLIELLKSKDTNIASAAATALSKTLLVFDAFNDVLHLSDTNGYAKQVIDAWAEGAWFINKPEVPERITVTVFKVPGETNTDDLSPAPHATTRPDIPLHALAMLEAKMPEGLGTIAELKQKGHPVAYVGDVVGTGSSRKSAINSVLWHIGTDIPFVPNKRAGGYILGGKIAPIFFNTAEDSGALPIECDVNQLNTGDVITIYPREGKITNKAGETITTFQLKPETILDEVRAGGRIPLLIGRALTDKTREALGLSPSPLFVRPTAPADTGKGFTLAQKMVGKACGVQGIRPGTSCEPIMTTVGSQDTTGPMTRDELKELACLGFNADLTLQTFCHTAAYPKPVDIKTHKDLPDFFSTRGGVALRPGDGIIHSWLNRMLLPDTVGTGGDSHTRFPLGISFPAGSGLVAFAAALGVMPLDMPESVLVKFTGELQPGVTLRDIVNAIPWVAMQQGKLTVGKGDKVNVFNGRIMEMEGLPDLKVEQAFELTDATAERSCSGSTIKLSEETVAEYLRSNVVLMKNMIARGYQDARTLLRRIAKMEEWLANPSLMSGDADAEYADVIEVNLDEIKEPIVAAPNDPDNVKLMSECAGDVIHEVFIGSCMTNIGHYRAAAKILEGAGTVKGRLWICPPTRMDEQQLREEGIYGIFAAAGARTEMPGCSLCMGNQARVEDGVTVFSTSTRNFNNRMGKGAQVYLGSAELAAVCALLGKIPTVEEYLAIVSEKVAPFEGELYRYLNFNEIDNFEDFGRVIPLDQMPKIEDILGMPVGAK

T3: HemA (a glutamyl-tRNA reductase) (yeast two-hybrid fusion) (Synechocystis sp. PCC 6803) (UniProt P28463)
T3 sequence: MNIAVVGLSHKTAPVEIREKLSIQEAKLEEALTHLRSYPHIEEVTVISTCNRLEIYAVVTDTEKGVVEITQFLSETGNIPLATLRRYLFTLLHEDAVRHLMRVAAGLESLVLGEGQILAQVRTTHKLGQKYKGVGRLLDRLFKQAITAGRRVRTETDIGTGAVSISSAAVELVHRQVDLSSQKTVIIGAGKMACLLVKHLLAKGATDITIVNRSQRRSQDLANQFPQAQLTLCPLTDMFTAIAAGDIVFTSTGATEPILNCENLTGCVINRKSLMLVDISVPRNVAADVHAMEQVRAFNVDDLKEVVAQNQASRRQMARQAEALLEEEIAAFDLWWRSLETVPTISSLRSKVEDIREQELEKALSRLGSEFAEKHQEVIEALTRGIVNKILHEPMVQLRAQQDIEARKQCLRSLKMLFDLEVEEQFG

B1: Dri1 Arg90Ala (yeast two-hybrid fusion) (protein, UniProt P73129 1-96)
chain: MADPLTPAISDRICKHMNEDHASAIALYAQVFGQQTDVTMAQMQAIDPTGMDLVVESEGGSKTIRIEFEQPLKDSEDAHQVLIAMAKQAASVGKNS
B2: Dri1 Glu76Ala (yeast two-hybrid fusion) (protein, UniProt P73129 1-96)
chain: B1 chain with E76A, A90R
B3: Dri1 His21Ala (yeast two-hybrid fusion) (protein, UniProt P73129 1-96)
chain: B1 chain with H21A, A90R
B4: Dri1 His16Ala (yeast two-hybrid fusion) (protein, UniProt P73129 1-96)
chain: B1 chain with H16A, A90R
B5: Dri1 His79Ala-Arg90Ala (yeast two-hybrid fusion) (protein, UniProt P73129 1-96)
chain: B1 chain with H79A
B6: Dri1 His79Ala (yeast two-hybrid fusion) (protein, UniProt P73129 1-96)
chain: B1 chain with H79A, A90R
B7: Dri1 (yeast two-hybrid fusion) (protein, UniProt P73129 1-96)
chain: B1 chain with A90R

What follows are binders tested against T1, SdhB1 (sll1625), iron-sulfur cluster binding subunit of the succinate dehydrogenase complex (yeast two-hybrid fusion) (Synechocystis sp. PCC 6803) (assay: two-hybrid; yeast Y2H-Gold, Gal4 system (pGBKT7 / pGADT7-AD); growth on SD -Leu -Trp -His -Ala, 30 °C, 3 days; three independent clones).

binding | Binder
binds | B1
no binding | B2
no binding | B3
no binding | B4
binds | B5
binds | B6
binds | B7

These binders were tested against T2, slr0665, an aconitate hydratase (yeast two-hybrid fusion) (Synechocystis sp. PCC 6803) in the same assay as above.

binding | Binder
no binding | B7

The binders below were run against T3, HemA (a glutamyl-tRNA reductase) (yeast two-hybrid fusion) (Synechocystis sp. PCC 6803) in the same assay as above.

binding | Binder
no binding | B7
